In the RNAGym collection of RNA variant scans (doi:10.7554/elife.90254):
Read counts are not given, so values of variants with three or more changes are uncertain.

B1: LINE1-mini (parent)
chain: GGCAGAGCUCAACACAGCGUGGCAAAGUGGCUGUGGCUAGACUGCC

Variants of: B1
Assay: self-cleavage, relative activity (ratio to wild type); higher = more cleavage; in vitro, sequencing; the parent is a self-cleaving ribozyme

Variant	self-cleavage
C18U G22C A26C C31U	0.08
G19A G22C C46A	1.32
G19A C23A G27U	0.72
G19C A25G G27A	0.16
G19A G36C C37A C45G	0.06
G19A A39G G40U	0.07
C18U G19U G33A G36A G40U C46G	0.02
G19A U20A C31A A39G	0.04
C18U G27A G29U G44U C46U	0.07
G19A G21U C45A	0.26
C18U G29C C37A	0.04
G19C A24U U38G A39G C42U	0
G19A U28G C31G G33U	0.08
G19A U20G C23A	0.81
C18U U34A G44A	0
G19A G22A A26U G27A G29U	0.26
C18G G29C G33U G35U	0.03
G19A A24U G33A	0.12
C18U G29A A39C A41C	0.05
C18U A26C G30U	0.69
C18U U28G C37U G40A C45U	0.34
G19A C31U C42G	0.04
C18U G22A A25G G33U G35C	0.03
C18U U20G G22A	0.74

Variant	self-cleavage
C18G G27C U34A G36C C42G	1.01
C18U G44A C46U	0.2
G19A U20C G21U	0.98
G19A A25U G29A	1.58
C18G G36A A39G G40C C46U	0.02
G19C A25U G29A G40C	0.02
C18U G19U G40U A41U C42U	0.03
G19A G33A C45A C46A	0.03
C18U U20A A25U U28G G36U	0.03
G19C A24C C45G	0
G19A C23U G29U U38G	0
C18U G30U U43A	0.03
G19A C31A G36C	0.05
C18G G30A U38G G44U	0.03
C18U G22C U34A	0.09
G19C G21A A24U C37U	0.01
C18G G30C A39C C45A	0.05
C18U C31U G35A G44A	0.02
C18U U32G C46A	0.01
C18U G21U C37U G44C	0.03
C18U G33U A39G	0.03
C18U A24U C45G	0.17
G19A A26U G35A C37G	0.04
G19C G21A G44A C46G	0.02

Variant	self-cleavage
C18U U20A G27C C31G A39C	0.01
G19A C23U A26G G30U	0.82
G19A G36U C42G	0.02
C18G U20G U38C	0
C18U A26U G35U	0.02
G19A C31G A39U	0.08
G19C A26G U43A	0.01
C18G G27C U34C A39C C45G	0.04
G19A G27A G35A	0.14
C18G G22U U32A U38G	0.01
G19C G21A G36U G44C	0.02
G19A G27A U28G	0.58
G19A U20C A25C A26U U34A	0.01
C18U G27C G29A U38G	0.02
G19A G27C C31G C45A	0.11
G19A C31U U43C	0.02
G19A G29U U38G	0.02
C18U G36C U38A	0.04
G19C A39C U43A	0.04
C18G G36U A41U	0.09
C18G G36U A41G	0.02
C18G U32G G36A U38C C46A	0.11
C18U G19A A26C U34A	0.1
C18U G19C C23A G36U A39U G44U	0

Variant	self-cleavage
C18G G27C U32G A41G	0.03
G19A U34A G44A	0.05
C18U C23G G33C U38C	0.02
G19A A25G U38G U43G G44C	0.02
C18U C23A A25C G27U	1.47
C18G G30A U32A	0
C18U G22C U28C	0.31
C18U G35U G36A	0.03
C18G U20G A26C C42A	0.05
C18U U32G C45U	0.03
C18U G35C G40U	0.03
G19A A39G U43C	0.06
C18U A25U C45G	0.18
C18U G27U G30U	0.57
C18U G21U A26U G36A U38A A39G G44A	0.04
C18G U20A G29C U32G G36U	0.02
C18U G19C C23A	0.53
C18U G33C U38A	0.01
G19A U20G G21A G22A G27U U38A	0.12
G19A U20C G44C	0.19
G19C C45A C46G	0.46
G19C C31A G44C	0.08
C18G G27A G44C C46A	0.09
G19A G22A A26U G27U	0.34

Variant	self-cleavage
G19C C23U G40U	0.29
C18U C23A G29A G35C	0.06
C18G G33U A39G	0
G19A U20A C31G G36U	0.06
C18G U20A G30U	0.83
C18G U20C G33C	0.01
G19C G21A C37A G40C	0.02
G19A G36A U38C	0.13
C18U G40A C46A	0.02
G19C A25U G33A	0.05
C18U A26U C37G U38G A41U	0.02
G19A U20A U34C	0.12
G19A U28C C31G C37A	0.05
C18G G27U U32A U38G	0.03
G19A U32C G33U	0.04
C18U G29C C46A	0.25
G19C A24G G33A G36U	0.08
C18G G22U A25C G29A G44A C45A	0.1
G19C C23A A25C A39G	0.03
G19A A26C C37U A41G C42A	0.03
G19A G36A C45G	0.19
G19A G40U C45U	0.14
C18G U34A G40U A41U C42U	0.01
C18G U28C A41G	0.07

Variant	self-cleavage
G19A G22A C37U	0.03
C18U G29U C31G A41C	0.03
C18U C37A A41C	0.03
C18U A25G G35C	0.02
G19A U28C G33A A41U	0.03
C18U U28C G36C C46G	0.07
C18U C23U C45A	0.55
C18U G19U G22U	0.52
G19C A26G G30A C31U	0.25
C18U C23U A39U	0.35
G19C A24C G33C	0.04
C18U G27A U28C U32C	0.19
G19A A26C G40U	0.13
C18U G21C U28C A41G C42U	0.06
C18U C23A U34G U43C	0.02
C18U C23A C42A	0.14
G19A G27U A39U A41C C46A	0.02
C18U G22C G29A	2.29
C18U C31G G33U	0.03
C18G G22U G29U U32C C37G	0.02
C18U G36A C42A	0.14
G19C C37U U43C	0.04
C18G U20C G21A	0.09
G19C C31U G40A G44A C46U	0.03

Variant	self-cleavage
G19C A25U U34G	0.09
C18U U20A C42U	0.1
C18U U20A C42G	0.04
G19C G21C C46A	0.89
C18U C37U A41U	0.05
G19A C42U U43G	0.56
C18U A25G G40U	0.02
G19C A25U A26C	0.42
C18U U32G G40C	0.04
C18U G29C A39C C45U	0.07
G19A U32C G44U	0.04
C18U G30A G40A G44A	0.01
C18U U28C C46A	0.53
G19C C23A C37U	0.03
G19A A25U G36U	0.06
G19C G21A A24U	0.17
C18G U20C C31A	0.02
G19A A41C C45A	0.06
G19A G21A G22A C23G A26U	0.63
C18U A24G C31A G40U	0.06
C18G U28C C42U C46U	0.1
G19A A24G G27A C31A C37G	0.01
C18U G22C C31U	0.08
